Assay results reported in PMC4336329 (PLoS ONE, 2015).
Out of some 310,000 compounds screened, about 14,000 (4.5%) showed an effect of 50% or more. The effect is printed as a negative number. This is one part of the list.

Target: human ether-à-go-go-related gene (hERG) potassium channel (human, UniProt Q12809)
Test: primary screen, population patch clamp on CHO cells stably expressing hERG
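Further: peak tail current of the secondary pulse compared with the same well before compound.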

human ether-à-go-go-related gene (hERG) potassium channel, sequence (Q12809 whole entry, looked up): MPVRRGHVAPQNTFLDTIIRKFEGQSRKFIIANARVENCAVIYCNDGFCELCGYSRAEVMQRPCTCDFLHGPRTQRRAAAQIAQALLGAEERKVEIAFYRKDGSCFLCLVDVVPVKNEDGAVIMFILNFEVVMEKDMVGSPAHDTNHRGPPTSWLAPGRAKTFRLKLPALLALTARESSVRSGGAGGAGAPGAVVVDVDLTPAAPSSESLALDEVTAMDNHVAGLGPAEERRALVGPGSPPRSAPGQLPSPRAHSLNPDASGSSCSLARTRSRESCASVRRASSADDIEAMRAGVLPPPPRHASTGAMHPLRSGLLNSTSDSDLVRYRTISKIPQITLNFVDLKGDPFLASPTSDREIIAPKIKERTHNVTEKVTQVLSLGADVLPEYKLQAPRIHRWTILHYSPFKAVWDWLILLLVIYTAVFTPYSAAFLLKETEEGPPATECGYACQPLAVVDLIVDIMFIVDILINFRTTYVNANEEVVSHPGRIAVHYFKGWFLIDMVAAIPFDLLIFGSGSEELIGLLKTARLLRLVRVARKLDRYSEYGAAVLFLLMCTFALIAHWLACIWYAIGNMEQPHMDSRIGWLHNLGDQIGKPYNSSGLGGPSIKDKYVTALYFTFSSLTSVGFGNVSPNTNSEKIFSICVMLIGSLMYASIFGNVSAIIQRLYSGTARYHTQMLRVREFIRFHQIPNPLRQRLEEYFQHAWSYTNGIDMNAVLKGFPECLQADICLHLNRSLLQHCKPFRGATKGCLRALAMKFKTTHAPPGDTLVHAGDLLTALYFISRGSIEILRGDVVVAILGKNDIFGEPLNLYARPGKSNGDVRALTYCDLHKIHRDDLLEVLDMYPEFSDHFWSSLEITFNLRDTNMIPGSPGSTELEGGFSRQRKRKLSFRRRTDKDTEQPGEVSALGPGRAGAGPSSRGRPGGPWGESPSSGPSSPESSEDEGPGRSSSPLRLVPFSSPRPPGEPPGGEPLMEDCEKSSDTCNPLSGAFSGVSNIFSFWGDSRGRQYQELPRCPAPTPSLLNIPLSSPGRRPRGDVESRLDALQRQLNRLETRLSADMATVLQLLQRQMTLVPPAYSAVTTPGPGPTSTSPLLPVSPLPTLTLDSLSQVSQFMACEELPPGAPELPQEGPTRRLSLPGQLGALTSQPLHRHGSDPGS

| Structure (SMILES) | hERG current change (%, negative = inhibition) at 10uM [%] |
| --- | --- |
| O=C(CN1C(=O)NC2(CCCCC2)C1=O)Nc1ccc(N2CCOCC2)cc1 | 24.9 |
| Cc1ccc(NC(=O)COC(=O)CCc2ccc(S(=O)(=O)N3CCOCC3)cc2)cc1F | -11 |
| COc1ccc(CN(C)C(=O)[C@H](Cc2ccccc2)NC(=O)c2ccco2)c(OC)c1 | -21.8 |
| CN1CCc2c(OCC(=O)NC3CCCCC3)cccc2C1=O | 13.6 |
| Fc1ccc(F)c(CN2CCN(c3ncccn3)CC2)c1 | 11.6 |
| Cc1ccc(NC(=O)CN2C(=O)COc3ccc(S(=O)(=O)N4CCCC4)cc32)c(C)c1 | 5.83 |
| CN1C(=O)N(CC(=O)N2CCN(S(=O)(=O)c3ccc(Cl)s3)CC2)C(=O)C12CCCCC2 | -16.1 |
| CSc1cc(C)c(OCC(=O)Nc2ccc(NC(C)=O)cc2)c(C)c1 | -4.69 |
| NC(=O)c1cc2nc(-c3ccco3)cc(C(F)(F)F)n2n1 | 4.51 |
| CCn1c(=O)cc(OCC(=O)N(C)C2CCCCC2)c2ccccc21 | -3.72 |
| CCC(=O)c1ccc2ncccc2c1 | 12.2 |
| CC(C)(C)c1ccccc1NC(=O)c1cccnc1 | 4.56 |
| O=C(Nc1ccc(Oc2cccc(C(F)(F)F)c2)nc1)c1ccccc1 | 13.6 |
| Cc1ccc(NC(=O)CN(C)C(=O)c2cc(-c3ccco3)nc3ccccc23)cc1 | -21.8 |
| CC1CCN(c2nc3nonc3nc2Nc2ccc(F)cc2)CC1 | -35 |
| COc1ccc(CC(=O)NC(C)CCc2ccccc2)cc1 (centres unmarked) | 5.43 |
| CC1CCCC(NC(=O)c2ccc3c(c2)NC(=O)CS3)C1C (centres unmarked) | 7.04 |
| O=S(=O)(NCc1ccccc1)c1ccc(S(=O)(=O)N2CCCCC2)cc1 | -3.11 |
| O=C(O)/C=C\C(=O)N1CCc2ccccc21 | 27.9 |
| O=C(/C=C/c1cc(Br)ccc1F)Nc1cccnc1 | 14.6 |
| CC(=O)c1c(N)n(C)c(=O)n(C)c1=O | -4.24 |
| Cc1cccc(OP(=O)(Nc2ccc(F)cc2)Oc2cccc(C)c2)c1 | 4.93 |
| CCc1cccc(CC)c1NC(=S)Nc1ccc2cn[nH]c2c1 | -21.2 |
| CCOC(=O)Nc1ccc2c(c1)N(C(=O)N(C)C)c1ccccc1CC2 | -6.99 |
| CCOc1ccccc1N1CCN(C(=O)c2c(Cl)cnn2C)CC1 | 5.83 |
| COc1ccc(-n2cc(-c3ccccc3)[n+]3c2CCCCC3)cc1.[Br-] | -19.3 |
